Structures are written as SMILES. The campaign covered roughly 310,000 compounds. About 14,000 (4.5%) showed an effect of 50% or more. Effects have a minus sign here. Some of the results follow.
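Also: peak tail current of the secondary pulse compared with the same well before compound.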

For the experiment, the target named is human ether-à-go-go-related gene (hERG) potassium channel (human, UniProt Q12809). The experiment in a line: primary screen, population patch clamp on CHO cells stably expressing hERG.
human ether-à-go-go-related gene (hERG) potassium channel, sequence (Q12809 whole entry, looked up): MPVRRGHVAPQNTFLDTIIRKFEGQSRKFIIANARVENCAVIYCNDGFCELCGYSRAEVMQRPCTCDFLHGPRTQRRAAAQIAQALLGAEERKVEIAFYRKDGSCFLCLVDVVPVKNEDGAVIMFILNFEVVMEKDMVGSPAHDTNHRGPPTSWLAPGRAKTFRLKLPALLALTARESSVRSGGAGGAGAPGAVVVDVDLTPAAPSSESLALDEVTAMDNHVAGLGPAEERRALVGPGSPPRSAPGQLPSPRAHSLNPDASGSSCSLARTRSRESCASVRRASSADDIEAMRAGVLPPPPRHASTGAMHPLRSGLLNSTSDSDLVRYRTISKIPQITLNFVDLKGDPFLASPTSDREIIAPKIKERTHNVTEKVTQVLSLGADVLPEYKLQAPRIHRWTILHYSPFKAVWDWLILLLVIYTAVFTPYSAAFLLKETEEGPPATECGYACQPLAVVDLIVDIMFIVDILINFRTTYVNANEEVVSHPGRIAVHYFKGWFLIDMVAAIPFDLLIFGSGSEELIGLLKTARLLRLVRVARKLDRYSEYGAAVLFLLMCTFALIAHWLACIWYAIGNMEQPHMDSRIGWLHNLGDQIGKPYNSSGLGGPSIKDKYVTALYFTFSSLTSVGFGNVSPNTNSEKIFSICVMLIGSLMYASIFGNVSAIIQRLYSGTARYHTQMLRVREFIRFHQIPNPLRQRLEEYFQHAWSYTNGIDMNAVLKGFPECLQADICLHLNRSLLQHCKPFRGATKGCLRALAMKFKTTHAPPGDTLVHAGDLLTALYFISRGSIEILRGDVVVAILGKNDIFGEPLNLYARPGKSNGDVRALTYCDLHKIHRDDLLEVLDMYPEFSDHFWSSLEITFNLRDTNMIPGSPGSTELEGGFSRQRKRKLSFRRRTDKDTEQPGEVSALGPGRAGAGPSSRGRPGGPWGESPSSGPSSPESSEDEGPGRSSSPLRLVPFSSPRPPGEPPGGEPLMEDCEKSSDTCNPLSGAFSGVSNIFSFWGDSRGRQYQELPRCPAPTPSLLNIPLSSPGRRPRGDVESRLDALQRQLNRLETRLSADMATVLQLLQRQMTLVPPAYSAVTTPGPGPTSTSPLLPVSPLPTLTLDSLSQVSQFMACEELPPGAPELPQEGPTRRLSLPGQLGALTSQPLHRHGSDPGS
As to `CCc1nn(CC(=O)NCCCc2ccccc2)c(=O)c2cc3c(OC)cccc3n12`, the “hERG current change (%, negative = inhibition) at 10uM” value is given as 8.86%.

For the molecule `CC(C)c1nc2cc(Cl)ccc2n(Cc2ccccc2)c1=O`, the “hERG current change (%, negative = inhibition) at 10uM” value is reported as 24.6%.

In the case of `CN(C)CCCNC(=O)Cc1ccc(Br)cc1`, the “hERG current change (%, negative = inhibition) at 10uM” value was 3.78%.

For the molecule `CC1CN(c2nc(-c3ccccc3)nnc2-c2ccccc2)CC(C)O1` (stereo not shown), the “hERG current change (%, negative = inhibition) at 10uM” value is recorded as -9.96%.

As to `COc1ccc(-n2c(COc3cccc(C)c3)nnc2SCC(=O)NCc2ccco2)cc1`, the “hERG current change (%, negative = inhibition) at 10uM” value is listed as -2.73%.

On to `CCc1cc(C(=O)O)c(NC(=O)c2cc(OC)c(OC)c(OC)c2)s1`, for which the “hERG current change (%, negative = inhibition) at 10uM” value was 10.5%.

Turning to `O=C1NC(=O)/C(=C\c2ccc(Br)o2)S1`, the “hERG current change (%, negative = inhibition) at 10uM” value is 21%.

Consider `Cc1ccc(CNC(=O)C(=O)NCC2OCCN2S(=O)(=O)c2ccc3c(c2)OCCO3)cc1` (stereo not shown), for which the “hERG current change (%, negative = inhibition) at 10uM” value is listed as -11.3%.

With `O=[N+]([O-])c1c(NCCO)cc(N2CCC3(CC2)OCCO3)c2nonc12`, the “hERG current change (%, negative = inhibition) at 10uM” value is -5.06%.

Turning to `CC(C(=O)NCCCc1ccccc1)c1ccc([N+](=O)[O-])cc1` (stereo not shown), the “hERG current change (%, negative = inhibition) at 10uM” value was -37%.

With `CN(C)C(=O)C[n+]1ccc(/C=N/O)cc1`, the “hERG current change (%, negative = inhibition) at 10uM” value turned out to be 14.3%.

As to `O=C(CN1CCN(S(=O)(=O)/C=C/c2ccccc2)CC1)NC(=O)NCc1ccco1`, the “hERG current change (%, negative = inhibition) at 10uM” value was -40.3%.

As to `Cc1nc2ccccn2c1C(=O)N/N=C/c1ccc2c(c1)OCO2`, the “hERG current change (%, negative = inhibition) at 10uM” value is on record as -2.14%.

Regarding `CC(C)(C)NC(=O)NC(=O)COc1ccccc1C#N`, the “hERG current change (%, negative = inhibition) at 10uM” value is 19.4%.

As for `CC(Oc1ccc(Cl)cc1Cl)C(=O)NC(=S)N1CCc2ccccc21` (stereo not shown), the “hERG current change (%, negative = inhibition) at 10uM” value is on record as 7.94%.

Turning to `Cc1ccc(N(C(=O)Cc2cccs2)C(C(=O)NC2CCCCC2)c2ccccn2)cc1C` (stereo not shown), the “hERG current change (%, negative = inhibition) at 10uM” value was -11.9%.

For the molecule `COc1ccccc1NS(=O)(=O)c1c(C)nc2sccn2c1=O`, the “hERG current change (%, negative = inhibition) at 10uM” value was -15.1%.

On to `COC(=O)c1[nH]c2ccccc2c1NC(=O)Oc1ccccc1`, for which the “hERG current change (%, negative = inhibition) at 10uM” value is on record as 12%.

Take `NNC(=O)c1nc[nH]c1C(=O)Nc1ccccn1`: the “hERG current change (%, negative = inhibition) at 10uM” value is -11.7%.

For the molecule `O=C(O)C1CCN(C(=O)COc2ccc3c(c2)oc(=O)c2ccccc23)CC1`, the “hERG current change (%, negative = inhibition) at 10uM” value is on record as 13.5%.

`COC(=O)c1c(NC(=O)c2ccccc2F)sc(C(=O)N2CCOCC2)c1C`: the “hERG current change (%, negative = inhibition) at 10uM” value is given as -26.4%.

With `COc1cccc(CNC(=O)CCl)c1`, the “hERG current change (%, negative = inhibition) at 10uM” value was determined as 1.75%.

For the molecule `CCC(C)NC(=O)Nc1ccc(C)cc1C` (stereo not shown), the “hERG current change (%, negative = inhibition) at 10uM” value is on record as 26%.

On to `CCN(Cc1nc2cc(Cl)ccc2c(=O)[nH]1)C(=O)C1CC(=O)N(c2cccc3ccccc23)C1` (stereo not shown), for which the “hERG current change (%, negative = inhibition) at 10uM” value is reported as -19.7%.

On to `COc1ccc(CC(=O)Nc2ccc(-c3ccc4nnc(C)n4n3)cc2)cc1OC`, for which the “hERG current change (%, negative = inhibition) at 10uM” value amounted to 2.72%.

For `Clc1nnc2ccc(-c3ccccc3)nn12`, the “hERG current change (%, negative = inhibition) at 10uM” value is -0.569%.

As for `O=C1c2cccc([N+](=O)[O-])c2C(=O)N1c1ccccc1`, the “hERG current change (%, negative = inhibition) at 10uM” value is listed as -8.51%.

Consider `COCC(C)N=C1NN=C(c2cccs2)C(CC(=O)O)S1` (stereo not shown), for which the “hERG current change (%, negative = inhibition) at 10uM” value is recorded as 20%.

In the case of `C=CCN(C(=O)C1CSC2(C)CCC(=O)N12)c1nc(-c2ccccc2)cs1` (stereo not shown), the “hERG current change (%, negative = inhibition) at 10uM” value is -5.07%.

Take `CCCC(=O)Nc1ccc2oc(-c3cccnc3)nc2c1`: the “hERG current change (%, negative = inhibition) at 10uM” value is reported as -3.04%.

For the molecule `Cc1ccc(Nc2c3c(nc4ccccc24)CCC3)cc1.Cl`, the “hERG current change (%, negative = inhibition) at 10uM” value is given as -78.8%.

Consider `C=CCc1cc(Cl)ccc1OCCCNC(C)C.O=C(O)C(=O)O`, for which the “hERG current change (%, negative = inhibition) at 10uM” value is -40.1%.

Regarding `CC(C)(C)c1cc(CN(CCO)CCO)cc(C(C)(C)C)c1O`, the “hERG current change (%, negative = inhibition) at 10uM” value is listed as -6.39%.

For `COC(=O)c1c(NC(=O)COC(=O)CNC(=O)c2ccco2)sc(C)c1C`, the “hERG current change (%, negative = inhibition) at 10uM” value is listed as 7.16%.

`O=C(COC(=O)C1CC(=O)N(Cc2ccco2)C1)c1ccc(OC(=O)c2ccccc2)cc1` (stereo not shown): the “hERG current change (%, negative = inhibition) at 10uM” value is recorded as -30.8%.

For `O=C(O)c1ccccc1NS(=O)(=O)c1cccc(C(F)(F)F)c1`, the “hERG current change (%, negative = inhibition) at 10uM” value is -1.4%.

As for `C/C=C(/C)C(=O)Nc1cccc(C2=NOC3(C2)C[C@H](C(N)=O)N(C(=O)COc2ccc(Cl)cc2)C3)c1` (stereo partly shown), the “hERG current change (%, negative = inhibition) at 10uM” value is listed as -12%.

For `Cc1nn(Cc2ccc(F)cc2)c2sc(C(=O)Nc3nccs3)cc12`, the “hERG current change (%, negative = inhibition) at 10uM” value is on record as 20.7%.

In the case of `O=C(NC(=S)N1CCCCCC1)c1ccccc1Cl`, the “hERG current change (%, negative = inhibition) at 10uM” value is -10.6%.

Regarding `CCOc1ccc(NC(=O)/C=C/c2ccccc2)c([N+](=O)[O-])c1`, the “hERG current change (%, negative = inhibition) at 10uM” value is given as -5.94%.

Regarding `CCCN1C(=O)C(O)(C2COC(C)(C)CC2=O)c2ccccc21` (stereo not shown), the “hERG current change (%, negative = inhibition) at 10uM” value was 18.3%.

On to `CCOC(=O)CC(=O)COc1nc2cc3c(nc2o1)CCCC3`, for which the “hERG current change (%, negative = inhibition) at 10uM” value is listed as -11.4%.

For `Cc1ccc(NC(=O)CCc2c(C)nn(-c3ccc(N4CCOCC4)nn3)c2C)c(C)c1`, the “hERG current change (%, negative = inhibition) at 10uM” value is 15.7%.

Regarding `N#Cc1ccc(COC(=O)c2cnc(Cl)c(Cl)c2)cc1`, the “hERG current change (%, negative = inhibition) at 10uM” value was determined as 8.12%.

On to `Cc1ccc(NC(=O)NCCCN2CCCC2=O)cc1`, for which the “hERG current change (%, negative = inhibition) at 10uM” value is on record as 1.5%.

In the case of `Cc1ccc(NC(=O)CSCC(=O)Nc2cccc3ncccc23)cc1`, the “hERG current change (%, negative = inhibition) at 10uM” value is -6.65%.

Turning to `C=CCn1c(O)c(C(C)=NCCCN(C)C)c(=O)[nH]c1=O`, the “hERG current change (%, negative = inhibition) at 10uM” value came out at 5.49%.

Turning to `Cc1c(Cl)cccc1-n1nnnc1-c1cccs1`, the “hERG current change (%, negative = inhibition) at 10uM” value was -7.33%.

Regarding `CCOC(=O)C1(Cc2cccc(Cl)c2)CCCN(C(=O)c2ccc(COC)s2)C1` (stereo not shown), the “hERG current change (%, negative = inhibition) at 10uM” value is -20%.

For `Cc1nccn1Cc1cccc2ccccc12`, the “hERG current change (%, negative = inhibition) at 10uM” value is given as -4.88%.

Turning to `Cc1ccc(S(=O)(=O)Oc2ccc(/C=N/N=C3/NC(=O)C(CC(=O)O)S3)cc2)cc1[N+](=O)[O-]` (stereo not shown), the “hERG current change (%, negative = inhibition) at 10uM” value was 24%.

For `O=C(O)CSCC(=O)NCc1c(Cl)cccc1Oc1ccccc1`, the “hERG current change (%, negative = inhibition) at 10uM” value is given as 14.5%.

On to `Cc1n[nH]c(=O)nc1N/N=C/c1ccco1`, for which the “hERG current change (%, negative = inhibition) at 10uM” value came to 11.7%.

`CC1Cc2ccccc2N1S(=O)(=O)c1cccc(C(=O)c2nccn2C)c1` (stereo not shown): the “hERG current change (%, negative = inhibition) at 10uM” value is listed as -10.8%.

As to `COc1ccccc1NC(=O)CSCc1ccc([N+](=O)[O-])cc1`, the “hERG current change (%, negative = inhibition) at 10uM” value is listed as -27.3%.

Regarding `O=C(/C=C/NCC(=O)c1ccccc1)c1ccc(Br)cc1`, the “hERG current change (%, negative = inhibition) at 10uM” value was 9.65%.

Regarding `O=C(NNC(=O)C1CC=CCC1)c1ccccc1Br` (stereo not shown), the “hERG current change (%, negative = inhibition) at 10uM” value came out at 6.66%.

As to `CN(C)C(CNC(=O)c1ccc2[nH]c(=O)c(=O)[nH]c2c1)c1ccco1` (stereo not shown), the “hERG current change (%, negative = inhibition) at 10uM” value is listed as -1.94%.

Values taken from article PMC4336329 (PLoS ONE, 2015).
